Measured values published in article doi:10.1101/2023.09.21.558797.
Residue numbers refer to the chain shown, from its start. Results are given in words; binding and its absence hold for the method and conditions named. Binding seen in cells or lysates may run through a third protein. Some results given as binding are weak or reduced against the parent protein; the word gives no strength. For some assays here: Sequences can lack the tags named with a protein.

Assays:
Test in all cases: pull-down; GST-Dyn1 PRR constructs on GSH-sepharose beads incubated with rat brain synaptosomal (P2) lysate; 20 mM Tris pH 7.4, 150 mM NaCl, 1% Triton X-100, 1 mM EDTA, 1 mM EGTA; 4 °C, 1 h; bound proteins by Western blot with antibodies to Endophilin A and Amphiphysin 1; only the target purified
[1] = biological target: T1, GST-Dyn1xA-PRR P833/836A (rat) (UniProt P21575)
T1 sequence: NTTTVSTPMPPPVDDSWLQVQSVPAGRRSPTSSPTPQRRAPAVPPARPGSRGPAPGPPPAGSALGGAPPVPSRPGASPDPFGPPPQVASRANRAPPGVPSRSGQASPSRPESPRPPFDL

GST-Dyn1xA 746-798 (rat) = biological target: T2, GST-Dyn1xA 746-798 (rat) (UniProt P21575)
T2 sequence: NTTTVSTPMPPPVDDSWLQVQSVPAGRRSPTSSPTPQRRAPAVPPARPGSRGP

[2] = biological target: T3, GST-Dyn1xA 806-864 P813/816A (rat) (UniProt P21575)
T3 sequence: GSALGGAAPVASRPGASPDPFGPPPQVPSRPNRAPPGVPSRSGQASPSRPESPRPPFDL

[3] = biological target: T4, GST-Dyn1xA 806-864 R838A (rat) (UniProt P21575)
T4 sequence: T3 sequence with A8P, A11P, R33A

[4] = biological target: T5, GST-Dyn1xA-PRR P816/819A (rat) (UniProt P21575)
T5 sequence: T1 sequence with P71A, P74A, A88P, A91P

[5] = biological target: T6, GST-Dyn1xA-PRR R838A (rat) (UniProt P21575)
T6 sequence: T1 sequence with A88P, A91P, R93A

[6] = biological target: T7, GST-Dyn1xA 806-864 P816/819A (rat) (UniProt P21575)
T7 sequence: T3 sequence with A8P, P14A

[7] = biological target: T8, GST-Dyn1xA-PRR P813/816A (rat) (UniProt P21575)
T8 sequence: T1 sequence with P68A, P71A, A88P, A91P

[8] = biological target: T9, GST-Dyn1xA-PRR S851/857E (rat) (UniProt P21575)
T9 sequence: T1 sequence with A88P, A91P, S106E, S112E

GST-Dyn1xA 806-864 (rat) = biological target: T10, GST-Dyn1xA 806-864 (rat) (UniProt P21575)
T10 sequence: T3 sequence with A8P, A11P

[9] = biological target: GST-Dyn1xA-PRR (full-length proline-rich region of Dynamin 1 splice variant xA, 746-864) (rat) (UniProt P21575)
GST-Dyn1xA 794-864 (rat) = biological target: T11, GST-Dyn1xA 794-864 (rat) (UniProt P21575)
T11 sequence: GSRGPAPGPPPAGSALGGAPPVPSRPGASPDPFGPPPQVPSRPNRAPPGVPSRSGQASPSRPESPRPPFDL

[10] = biological target: T12, GST-Dyn1xA-PRR S774/778E (rat) (UniProt P21575)
T12 sequence: T1 sequence with S29E, S33E, A88P, A91P

[11] = biological target: T13, GST-Dyn1xA-PRR P844A (rat) (UniProt P21575)
T13 sequence: T1 sequence with A88P, A91P, P99A

[12] = biological target: T14, GST-Dyn1xA-PRR P830/833A (rat) (UniProt P21575)
T14 sequence: T1 sequence with P85A, A91P

[13] = biological target: T15, GST-Dyn1xA-PRR R846A (rat) (UniProt P21575)
T15 sequence: T1 sequence with A88P, A91P, R101A

[14] = biological target: T16, GST-Dyn1xA 806-864 P833/836A (rat) (UniProt P21575)
T16 sequence: T3 sequence with A8P, A11P, P28A, P31A

B1: Amphiphysin 1 (endogenous, rat brain synaptosomes) (protein, UniProt O08838 1-683)
chain: MADIKTGIFAKNVQKRLNRAQEKVLQKLGKADETKDEQFEEYVQNFKRQEAEGTRLQRELRGYLAAIKGMQEASMKLTESLHEVYEPDWYGREDVKMVGEKCDVLWEDFHQKLVDGSLLTLDTYLGQFPDIKNRIAKRSRKLVDYDSARHHLEALQSSKRKDESRISKAEEEFQKAQKVFEEFNVDLQEELPSLWSRRVGFYVNTFKNVSSLEAKFHKEIAVLCHKLYEVMTKLGDQHADKAFSIQGAPSDSGPLRIAKTPSPPEEASPLPSPTASPNHTLAPASPAPVRPRSPSQTRKGPPVPPLPKVTPTKELQQENIINFFEDNFVPEINVTTPSQNEVLEVKKEETLLDLDFDPFKPDVTPAGSAAATHSPMSQTLPWDLWTTSTDLVQPASGGSFNDFTQPQDTSLFTMQTDQNMAETEQALPTEPQAEEPPTTAAAPTAGLDLGLEMEEPKEEAAIPPGTDAGETVGTEGSTGEEAEAEKAALPAGEGESPEGAKIDVESTELASSESPQAAELEAGAPQEKVIPSVVIEPASNHEGEEHQETTTGTETREATEDVAPQGPAGEKQELATEPTPLDSQAATPAPAGAVDASLSAGDAAQELPPGFLYKVETLHDFEAANSDELTLQRGDVVLVVPSDSEADQDAGWLVGVKESDWLQYRDLATYKGLFPENFTRHLE
[1]
  binding: no binding
GST-Dyn1xA 746-798 (rat)
  binding: no binding
[2]
  binding: binds
[3]
  binding: binds weakly
[4]
  binding: binds
[5]
  binding: binds
[6]
  binding: binds
[7]
  binding: binds
[8]
  binding: binds
GST-Dyn1xA 806-864 (rat)
  binding: binds
[9]
  binding: binds
GST-Dyn1xA 794-864 (rat)
  binding: binds
[10]
  binding: binds
[11]
  binding: binds
[12]
  binding: no binding
[13]
  binding: binds
[14]
  binding: no binding
